# Over roughly 33,000 sequences, “E-score (-0.5 to 0.5)” has its median near -0.043; the highest 2% begin near 0.37. Some of the results follow.
# Target: T1, Upc2 (UniProt Q12151)
# T1 sequence: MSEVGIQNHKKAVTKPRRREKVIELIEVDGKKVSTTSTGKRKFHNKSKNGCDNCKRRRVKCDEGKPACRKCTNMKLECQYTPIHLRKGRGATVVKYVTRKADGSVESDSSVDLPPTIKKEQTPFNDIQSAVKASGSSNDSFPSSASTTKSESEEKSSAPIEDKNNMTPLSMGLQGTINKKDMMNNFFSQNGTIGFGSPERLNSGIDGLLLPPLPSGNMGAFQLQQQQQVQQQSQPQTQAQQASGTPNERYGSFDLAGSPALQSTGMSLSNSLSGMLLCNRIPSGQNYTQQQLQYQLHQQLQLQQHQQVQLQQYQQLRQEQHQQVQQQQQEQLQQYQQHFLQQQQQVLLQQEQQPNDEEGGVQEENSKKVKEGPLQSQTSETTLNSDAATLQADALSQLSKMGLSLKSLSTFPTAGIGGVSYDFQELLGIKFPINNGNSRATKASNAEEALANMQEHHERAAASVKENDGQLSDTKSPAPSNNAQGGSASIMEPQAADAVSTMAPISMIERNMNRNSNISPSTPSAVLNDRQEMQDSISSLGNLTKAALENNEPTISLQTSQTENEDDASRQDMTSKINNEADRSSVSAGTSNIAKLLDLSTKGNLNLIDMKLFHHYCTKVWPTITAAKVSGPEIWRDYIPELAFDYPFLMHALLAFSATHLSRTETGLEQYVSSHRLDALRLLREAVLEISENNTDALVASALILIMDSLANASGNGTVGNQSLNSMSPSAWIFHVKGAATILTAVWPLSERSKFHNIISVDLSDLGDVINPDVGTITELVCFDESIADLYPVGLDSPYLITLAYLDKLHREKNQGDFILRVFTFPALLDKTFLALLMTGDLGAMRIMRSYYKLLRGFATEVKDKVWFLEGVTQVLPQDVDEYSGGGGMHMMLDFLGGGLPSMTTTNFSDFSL
# Assay: PBM E-score (8-mer binding enrichment) (E-score (-0.5 to 0.5)); higher = stronger / more preferred TF binding; most listed sequences are background and not binding sites
# Conditions: protein concentration: 200 nM; construct: GST-full length
# In short: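 Universal all-10-mer Agilent arrays, fresh or stripped once, were converted to double-stranded form by primer extension. GST-tagged yeast transcription factors from PURExpress in vitro transcription/translation, full-length or DNA-binding domain only, were applied at about 100-200 nM and detected with fluorescent anti-GST. After masliner normalisation, the Universal PBM Analysis Suite scored each ungapped eight-base word together with its reverse complement by E-score.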
row,Sequence,PBM E-score
1,AGGTCGAG,-0.149
2,GTATGCTA,0.0964
3,CCGCTAGG,-0.19
4,CACCACAA,-0.0979
5,CGGGCACG,-0.133
6,AACCTTCT,-0.262
7,GTAATATA,0.197
8,ACGTCGCA,0.201
9,ACTGGGCA,-0.0797
10,CCATCAGG,-0.216
11,ATATAAGG,-0.116
12,TATCACGA,0.108
13,GTAAGAAC,0.207
14,CTCGTAAC,0.425
15,AATTTCAA,0.0209
16,ACAAACCT,-0.154
17,AGGTATAG,0.103
18,CACGACCA,-0.0648
19,CTACCTGC,-0.204
20,ATCCGAGA,0.238
21,AGCTGGGA,-0.277
22,CACAGCCA,-0.193
23,AGGCCGTC,-0.02
24,CGCCCAGC,-0.0365
25,GAGTACCC,0.0344

row,Sequence,PBM E-score
1,GCGTAGGA,-0.0966
2,CTGAACAC,0.0787
3,AGCCATCC,-0.225
4,GCGTCAAA,0.0523
5,CGGTTACC,0.301
6,ACACGCGT,0.152
7,AGTTGCTC,-0.148
8,GCAACGCC,-0.17
9,ATATTAAG,-0.108
10,AAAACTTT,-0.073
11,AACGGCCA,0.181
12,CACTGGTC,-0.0102
13,AAATGACC,-0.129
14,GGCCTAAA,-0.155
15,ACAGACAG,-0.00816
16,ACCAGTGG,-0.247
17,ACTGTCGA,0.0599
18,GACGTCGA,0.11
19,ATCCTTTC,-0.0818
20,GGCGGGGA,0.232
21,CCGATCTA,0.0149
22,ACAGTGGT,0.0357
23,CGAAACGC,0.15
24,AGTAGCGG,-0.151
25,GAATGCCA,-0.209

row,Sequence,PBM E-score
1,CAAGTGCG,-0.11
2,CGCAGAAG,-0.089
3,ATACCGGA,0.096
4,AGGCCGGG,-0.0884
5,AGATCTCC,-0.185
6,GGGTCGAA,0.0267
7,TCGCGCGA,0.0486
8,AGAACTAG,-0.332
9,ATTGATCC,-0.142
10,TAACGTTA,0.102
11,CGAATACC,0.0972
12,AGATCCAA,-0.0522
13,AAACTCAC,-0.0591
14,ACGACTGC,0.315
15,GAGCCACA,-0.0946
16,ATAGATTG,0.01
17,CGCCAAAG,-0.324
18,CTGTGCTA,-0.154
19,CTATCGCA,0.0282
20,GCCTTGTA,-0.102
21,ATGTGACA,-0.00596
22,CGTAGGTA,0.0321
23,CCCAATCA,-0.165
24,ATCGATTG,0.0896
25,AACGCCAG,0.0051

row,Sequence,PBM E-score
1,GCAAGGGC,-0.275
2,CCGGCACC,-0.204
3,CTTATGCC,-0.0216
4,CACGCGCG,-0.095
5,TTGCCAAA,0.122
6,AACCCTGA,-0.142
7,TACAAACA,0.113
8,CATGCCTA,-0.28
9,CCCTCGCC,-0.064
10,GAACATGA,-0.0854
11,CCGCTTAC,0.176
12,CGAAATTA,0.107
13,CATCCCGG,-0.244
14,ACCTGTAG,-0.118
15,GTGGCAGA,-0.211
16,ATGTGCCG,-0.129
17,ACAAGAAG,-0.106
18,ATAAGAGG,0.21
19,AACAGCCT,-0.199
20,ATCCTGAC,-0.109
21,GCCACCGA,-0.216
22,AGACCGAC,0.115
23,AGCACTGA,-0.175
24,ACGTTATC,0.0616
25,CGCTAACA,0.0561

row,Sequence,PBM E-score
1,TCTTGCAA,0.0489
2,ATATTTTA,0.134
3,CGAGTATA,0.267
4,ACATATGC,0.00119
5,CCCAGGGA,-0.29
6,CGAAATCC,0.00047
7,TGGAGTAA,0.00689
8,CCCATAAC,-0.0388
9,AGTTTATA,0.129
10,ATCAGTAG,-0.0285
11,ATCCGACC,0.135
12,ACTGCGCA,0.155
13,AATTACTG,-0.167
14,ACCCCATC,-0.05
15,ACAGTTGA,-0.212
16,CATGGACC,-0.151
17,AGGTAAAG,0.0594
18,ACAAGCCC,-0.1
19,CCGGACCA,-0.0772
20,ACTTGCGA,0.156
21,AAGTATAT,0.104
22,ATGGCGTC,-0.0819
23,AGCTTCCG,-0.0739
24,CCATGTCG,0.115
25,CGAATTAA,0.306

row,Sequence,PBM E-score
1,AAACGTGC,0.23
2,CCTGAACC,-0.146
3,GTATACAC,0.349
4,AGCCGGAG,-0.164
5,AGGATCGA,0.122
6,ACAGGCAT,-0.079
7,CCTTGGAC,-0.0581
8,CTTAGTGC,-0.128
9,GGGGACAC,-0.234
10,AGCAAGCG,0.13
11,GGCAGCCC,-0.106
12,CCATGTCA,-0.227
13,GAAGGCAC,0.00587
14,GTGTCCGA,0.19
15,AAGACCTT,-0.0994
16,ATTCCGTC,-0.25
17,TGTCCAAA,-0.0722
18,GTTGCGCA,-0.0544
19,CCCGCTTC,-0.155
20,GTTAAAAA,0.11
21,ATCAATTC,-0.0615
22,ACCAGCCT,-0.124
23,GCTTGTCC,-0.034
24,CCAGCGAG,-0.0577
25,CTTGGAAA,0.0884

row,Sequence,PBM E-score
1,AGGAGGAT,-0.168
2,CACCGGGC,-0.273
3,GGGGGTGA,-0.208
4,AACCCACT,0.0108
5,AAGCCTAC,-0.222
6,AACCATGG,-0.0402
7,AGCCACGG,-0.167
8,ATGGTAAT,-0.0194
9,AGATCGTA,0.387
10,CGTACCAG,0.39
11,AGCCGTCA,0.0375
12,TTGGACAA,-0.133
13,ATGTACAT,0.16
14,GCGCTTGA,0.0423
15,ACTGAAGG,-0.198
16,AAACCTGA,0.021
17,ACGCACGC,0.131
18,CGTAGCCA,0.201
19,CAGTGCAG,-0.0314
20,CTAGGTGA,-0.169
21,CTTGGTAA,0.0951
22,CGGTTGGC,0.195
23,GGCAGAAC,-0.135
24,GAATCGTC,0.052
25,ATATTACA,0.152

row,Sequence,PBM E-score
1,AATATAAA,0.0391
2,AGTCTAGC,-0.134
3,GACATCCC,-0.102
4,ATCTTTGG,-0.206
5,GATCCTAA,0.0826
6,CCAGAGGG,-0.289
7,CTCAACAA,-0.0893
8,ATTCGAGG,0.0605
9,GATCGGGC,-0.136
10,ACTTTTAA,-0.0185
11,CCACGAGC,-0.0694
12,AGTTTCCC,-0.215
13,CGCGAAGA,0.0952
14,AGATATGG,-0.0349
15,AAAGCCAA,-0.185
16,CCTGTAAA,-0.0269
17,CCCTGAAA,-0.0709
18,AGGAACGA,0.449
19,CCGACTGC,0.0197
20,ACTCAGCT,-0.149
21,ATCTGCAA,-0.245
22,ACTCTCGC,0.186
23,ACTGCGGA,-0.0568
24,ACCGCGCT,-0.108
25,AGACCCAC,-0.0603

row,Sequence,PBM E-score
1,ATTTTAGA,-0.0396
2,GGTCCAAA,-0.236
3,CAGACTTC,-0.0462
4,GCAGACAA,-0.0463
5,AGCACGCC,0.063
6,AGGAGGTA,-0.0705
7,AGAGAGAT,-0.11
8,CCGCTTCA,-0.0583
9,ATGGGTTA,-0.00164
10,GGCCCGAA,0.0386
11,TAGAATGA,-0.263
12,ACCAGTCC,-0.319
13,ACTTTTTG,-0.124
14,GTACTACA,0.196
15,ATCCCGAG,0.0317
16,ATTAGGCC,-0.153
17,GAGGAATA,0.0306
18,CATGTTAA,0.0636
19,GCCGCGAC,-0.0946
